Over roughly 33,000 sequences, “E-score (-0.5 to 0.5)” has its median near -0.011; the highest 2% begin near 0.28. The list shows a part of the results.
target: T1, Gcr1 (UniProt P07261); assay: PBM E-score (8-mer binding enrichment) (E-score (-0.5 to 0.5)); higher = stronger / more preferred TF binding; most listed sequences are background and not binding sites; conditions: protein concentration: 100 nM; construct: GST-full length
T1 sequence: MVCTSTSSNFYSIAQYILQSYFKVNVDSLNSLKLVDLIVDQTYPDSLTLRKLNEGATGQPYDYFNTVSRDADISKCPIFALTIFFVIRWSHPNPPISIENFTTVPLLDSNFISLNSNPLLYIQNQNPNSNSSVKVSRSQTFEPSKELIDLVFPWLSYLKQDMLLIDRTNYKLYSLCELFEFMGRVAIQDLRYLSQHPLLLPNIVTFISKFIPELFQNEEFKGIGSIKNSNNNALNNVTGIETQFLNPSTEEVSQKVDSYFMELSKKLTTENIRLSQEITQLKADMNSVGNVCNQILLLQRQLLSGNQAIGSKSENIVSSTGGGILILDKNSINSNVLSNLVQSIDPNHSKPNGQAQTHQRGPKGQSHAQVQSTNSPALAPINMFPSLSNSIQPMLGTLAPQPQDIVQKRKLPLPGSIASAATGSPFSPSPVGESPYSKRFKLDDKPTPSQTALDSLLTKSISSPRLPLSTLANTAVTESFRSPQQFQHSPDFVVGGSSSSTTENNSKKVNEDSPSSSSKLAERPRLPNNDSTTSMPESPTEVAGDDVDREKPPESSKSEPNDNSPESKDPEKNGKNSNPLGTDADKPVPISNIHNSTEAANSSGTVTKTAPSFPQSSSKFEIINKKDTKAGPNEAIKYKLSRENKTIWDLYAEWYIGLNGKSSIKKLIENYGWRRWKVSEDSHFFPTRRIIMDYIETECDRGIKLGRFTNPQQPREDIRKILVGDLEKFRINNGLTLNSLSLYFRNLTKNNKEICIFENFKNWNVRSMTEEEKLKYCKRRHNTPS
In short: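 Using PURExpress in vitro transcription/translation, GST-tagged yeast transcription factors were made in full-length or DNA-binding-domain form. These were applied at about 100-200 nM to double-stranded universal all-10-mer Agilent arrays, and bound protein was detected with fluorescent anti-GST. Scans were normalised with masliner before the Universal PBM Analysis Suite assigned E-scores to ungapped eight-base words pooled with their reverse complements.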

Sequence	PBM E-score
ACAGGAAA	0.125
ACCTCGAA	0.0904
CCGGGGAC	-0.00379
GTCTATCA	-0.0272
ATTAGCCA	-0.0404
AGGTTACA	-0.0235
TAGGACAA	0.00413
GCAAGTGA	-0.104
ACAGAATA	0.133
GAATACAC	-0.00547
GCTGTTCA	0.123
AATTCACG	0.0837
GTGCAGCA	-0.0521
CATGGGCA	0.115
AATCCAAA	0.205
GCCACCTA	0.0714
CCCGTGGC	0.103
GGGACGCA	0.16
AACATCCC	-0.109
AGGGCCGG	-0.0751
AACTGGGC	-0.196
AACTTTTC	0.0874
AAGTAGGG	0.187
CAACCTAC	-0.119
AAACTGCA	0.213

Sequence	PBM E-score
CAGGACGA	-0.145
AGGTTCCC	0.247
CGCTCTAG	0.0157
CGCACTAG	-0.0117
CTATCCCC	-0.118
AATTGACC	0.128
CAGTATTA	0.131
ACGAGAAT	-0.0263
GTCAGTAA	-0.264
AATATCCG	0.0616
AACTAACA	-0.0668
GTCTACAC	0.0198
CATCCCTA	-0.0284
CCTACTGC	-0.0338
ACCGGAAG	0.303
AGAGCTAT	-0.225
ACAATTGT	0.0177
ACCTATGA	-0.119
CCCTATCA	0.0995
AAGCATCT	0.229
CGAGCGAC	-0.066
AGTAACCA	0.136
AACCACTC	-0.0327
AGGGATGC	0.098
ACGAACTG	-0.0258

Sequence	PBM E-score
AAATTACG	0.178
ATTTGTCG	-0.0171
ACTATGAC	-0.13
GACTATGC	-0.023
CCGGAGCC	0.206
ATACGATA	0.111
GCCTGGCC	-0.288
ACCTTGAA	-0.131
CCTATCCA	-0.0709
ACGTAAGT	-0.0859
AAGCCTTG	-0.147
ATGGATGA	-0.0514
ATCCGTTG	0.0103
TACACGAA	0.258
GACCACCC	-0.176
CCTCATGA	-0.0561
TCACATCA	-0.063
ACCTAGTC	-0.0637
AGGGCTAT	-0.136
TACGGGAA	0.239
AGGAGTTA	-0.0906
CGGGAGAA	-0.152
ACCACCCG	-0.13
AACGTATG	-0.0753
CAAGAGGG	-0.309

Sequence	PBM E-score
CAATTTCG	0.0784
ACTAATCA	-0.0552
CCCGGAAA	0.26
ACTAGCGC	-0.0142
AAAGAGAG	-0.00056
CAGGATCG	0.154
ACACCGAG	-0.031
CCTGGAAG	0.0765
AATGGAAG	0.27
CTGCCGAA	-0.0682
ACTGGCGA	-0.102
CACTACCC	0.0415
ACGACATC	-0.0369
ATCGCTCC	-0.281
TCAAGAGA	-0.155
ACTCTTGG	0.125
CTCCGACA	-0.0826
AGGCTCTA	-0.107
CCCATCGG	0.0729
GCGCGTAC	0.03
CAGCCCGG	-0.173
CATAAGGA	-0.131
AGTCATCC	-0.25
GTTGGATA	-0.0858
ATAGGGTG	0.118

Sequence	PBM E-score
CCGCAACG	0.108
ATTATCAA	0.127
AACTGATC	-0.114
TCATATCA	0.0493
CCATCCAC	-0.0219
GAGATAAA	0.105
ACCTCAGA	0.115
AATGGATC	0.0672
GAGATCCC	0.0362
ACCGGCCA	-0.0698
AGGCCGCC	0.292
ATAGAGGA	0.346
ATGTAGCG	0.137
AGGCAGTG	-0.0295
ACCTCTCG	0.00236
ATGGTCAC	-0.0692
AACCGGAC	-0.015
ACGGAAAA	-0.00228
CGCGAGAG	-0.129
CGTTAAGA	-0.0966
CTCACAAC	0.0213
TAATCGGA	0.0478
ATCCTCGA	0.053
AGTCACAT	0.0264
TGTGGTAA	0.0312

Sequence	PBM E-score
GGCTGCAA	0.128
ACCTGCCA	0.0124
CCACAGAG	0.0219
CCAAAACA	0.0464
TCTATGAA	-0.00286
ATCCCAGA	0.191
ACATTCCA	-0.0868
TGCTTCAA	-0.178
ACAACCAG	0.0717
ATGTACCC	0.14
TAAAACGA	-0.0294
CAATGTAA	0.0141
CAAGTGAG	-0.237
AATAGAGT	0.0735
AATCGAGG	0.0685
AATGTCTG	0.0287
CGCGATGA	-0.119
CTCCACAG	-0.0833
TCCCGTCA	0.00392
TCATGACA	-0.0321
CCTGAAGA	0.17
GAACGACC	-0.165
ATTAATCA	0.0591
AGCAGGGA	-0.295
AAAACCGA	-0.223

Sequence	PBM E-score
CTAACTAG	-0.0144
CCCATCCC	-0.0408
CAGCAGAA	0.00834
GCGTCGAA	-0.0217
CCTGCGAA	0.0189
AGGCACAT	-0.0553
CACACACA	-0.0394
CGCATGAA	0.0588
AGAAGAAC	0.13
AATGTATC	-0.00652
ATGGCAAA	-0.132
AACATGAG	-0.0818
CTACACGA	0.183
AAACATCC	-0.0125
AACACGTC	-0.0973
AGGGTATC	-0.193
AACAACCT	0.108
AGATATAT	0.0972
CCGCCACA	0.185
CTTTTTCC	-0.0076
ACACTCTC	-0.0813
AGCGAAAC	0.0411
GGTAGAAA	0.00331
GCATCTCC	0.152
CGCCAACC	-0.0353

Sequence	PBM E-score
GATTTCGC	0.077
GCGTGTAC	0.0849
CCGTTGTA	-0.106
CCACGCGC	-0.106
GAGTTTCA	-0.0957
CGCGATTA	0.0269
CCCAAACA	0.0508
AATATCGC	-0.0601
ATTGATCA	-0.157
AGTGACCC	-0.125
CCCATGCG	-0.00239
TATATCAA	-0.0485
CGCCTAAA	0.183
AGGTCAGC	-0.175
AAGATTTA	0.153
GCAGCTAC	0.267
CTCTAAAA	0.0248
CAAGTTAG	-0.138
AGTACGTC	-0.0158
ATAGATCG	-0.126
CACGCAGC	0.295
AATACTTG	-0.0203
ATTGCCGC	-0.0608
ATGGAGGG	-0.218
GGCTCCCA	0.348

Sequence	PBM E-score
CAACCACC	0.122
TCACCCAA	-0.00294
GCCGTCGA	-0.197
CGTTCTAA	0.0491
AAGATGGG	0.137
CGGTACAA	0.0327
AGAATAAC	0.0457
AAAATATC	0.129
ACCTGAAC	-0.051
GCTGATCC	-0.0746
AGTCCATG	-0.045
AGGCTGGC	-0.163
CGGCCCGC	-0.26
CGGTAGAG	0.0493
AGAAGCCT	0.273
GTGGATAA	0.00407
GAGGTCGA	-0.222
AGGCCTTG	-0.321
AAACAACG	0.0681
AGTTAAGA	0.0167
CGCTGACC	-0.127
AAGTTCAG	-0.00811
AGCACTTG	-0.15
GACTGGTA	0.172
AAACGCAG	-0.0998

Sequence	PBM E-score
CTAGCACC	0.31
ACCTTCCC	-0.00014
AGCAGAAC	-0.0186
CGGGAATA	0.0358
GGGGTTAC	-0.215
CTTGGACC	-0.0788
ACGTTGGC	-0.122
CGTATTGC	-0.0106
GACCATAC	0.159
GGCGACCC	-0.096
GGGGGTTA	-0.256
CCGGGATA	0.147
CGCCGTCC	0.149
GTACCGGA	0.0665
AGTACTCA	0.00491
ACTAGAGA	-0.0967
CCGGTCTC	0.0594
AGCATGCG	-0.268
CGGGCGAC	0.177
AGTCGTGA	-0.0313
CTATGTGC	0.00208
CAAGTGTA	-0.255
ACAATCCC	-0.0674
AAGTTGGT	0.0907
ACAAGGAA	0.193

Sequence	PBM E-score
CTACTATA	0.282
GCGCGCAA	0.176
TACAACGA	-0.0189
CAATTTGA	0.193
CGGAGGTC	-0.139
CCCTGACA	-0.0595
CCCCGCGA	-0.0994
ATAGCCCA	-0.075
GAGGACAA	-0.19
AATCTATG	0.163
GATTTGAC	-0.113
CCAGCTGC	0.218
CTGTCGGC	-0.152
AGCGTGGC	-0.133
ACTTCGCT	-0.174
CATAGTTA	-0.15
ACACGCTG	0.167
CGAAACCC	-0.0492
ATAAGCTC	-0.102
GAGGGGCC	-0.0344
CTCCGCCA	-0.0655
TATGGTGA	0.00859
CGATCCCG	-0.0355
CAAACTAA	0.00609
AAGGATTC	-0.00527

Sequence	PBM E-score
GGGACCAA	0.134
GCTCAGCC	-0.246
ACTTGCCC	-0.0641
AATATACT	-0.0886
CCTTACAA	0.027
AGTAGTAG	0.144
ACAGAACA	-0.0374
ACTCCGCA	0.156
CCTGCTAC	-0.0553
ACCGGTCG	0.0453
CTGTCATA	-0.00757
CCCATCAC	-0.136
CGAGAAGC	0.26
CCCTGATC	0.00139
ATCACAGC	-0.193
AATGGGCC	0.0902
GAAACAGC	-0.0542
CCGCTAAC	0.141
CACAATCG	0.0642
ACCCGGGA	0.0783
GCGGAGTA	-0.0905
CCATGGCA	-0.136
TAGGCGCA	0.225
GAAGACGC	0.304
CACCCCGG	-0.151

Sequence	PBM E-score
AATCACAC	0.113
GGAGTTAC	-0.288
CCGACCCG	-0.148
GACGATTA	-0.0443
CAATATCA	-0.207
GTCAGAAC	-0.0896
CAGCGGAA	0.0476
AGGTTACT	-0.0782
CTCAACAG	0.0101
CAAATGTA	0.0852
CCGGGTGC	0.245
GCTAAATA	0.129
CTATCTTA	0.0203
GCACGCCC	-0.122
GCCCATGA	-0.121
CACTTAAG	0.052
CTAAGCTC	-0.126
ACGGCCCT	-0.263
ATGGTGCG	0.0681
GAGTTTGC	-0.142
AGTCACCA	-0.0677
ATATTTGA	0.0958
ATGCCTTA	-0.15
ACATAACA	0.0753
AGGTGACA	0.0175

Sequence	PBM E-score
AATGGCAG	0.143
GGTCCTCA	-0.0385
AATCATGT	-0.137
ACAGACCG	-0.104
ACACATCA	0.0271
CGATTAAC	0.013
CATTACCG	-0.153
GAGGGGAC	-0.0671
CCCGTCTA	-0.0544
CATGAGTA	-0.0943
AGGATTCG	0.126
AGCTTCGA	0.0125
ATTGTGCG	-0.236
ACAGAGCG	-0.229
ACTTAAGT	0.0648
ACTGTCTC	-0.0499
TCTGGACA	0.0373
GAGCTGAC	-0.0979
CGCGGCCC	0.0327
